# Source: PubChem BioAssay AID2676 (National Center for Advancing Translational Sciences (NCATS), 2010)
# Screen size: about 370,000 compounds; about 1,100 (0.3%) were called active. The inconclusive results got no clear call from the source; some entries with a clear call stand among them for comparison. Calls follow the shape of the dose curve; as a rule, active = well fitted activation curve with a large enough effect; inconclusive = small, poorly fitted or top-dose-only effect; inactive = flat fitted curve, though single readings scatter. Where the call is inconclusive, the potency comes from a doubtful curve fit.
# Biological target: Relaxin receptor 1 (Homo sapiens) (UniProt Q9HBX9)
# Assay: qHTS Assay for Agonists of the Relaxin Receptor RXFP1; also: nearly all actives have a fitted effect of over 60% in size
# Details: HEK293T-RXFP1 cAMP TR-FRET, 30 min; series mostly up to 57.5 µM; activation: at the top concentration
# Outline: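 cAMP rise read by TR-FRET after 30 min, 37C compound exposure (up to 58 uM) in RXFP1-transfected HEK293 cells with Ro 20174 present. EC50 from Hill-equation fits, with 29 nM porcine relaxin as 100% and buffer as basal.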
# % is scaled to controls: 0 for no effect and ±100 for the full control effect; potency is read from the fitted curve at half-maximal effect; tags tell the direction and shape of the fitted curve.
# Chain of UniProt Q9HBX9 (Q9HBX9 whole entry, looked up): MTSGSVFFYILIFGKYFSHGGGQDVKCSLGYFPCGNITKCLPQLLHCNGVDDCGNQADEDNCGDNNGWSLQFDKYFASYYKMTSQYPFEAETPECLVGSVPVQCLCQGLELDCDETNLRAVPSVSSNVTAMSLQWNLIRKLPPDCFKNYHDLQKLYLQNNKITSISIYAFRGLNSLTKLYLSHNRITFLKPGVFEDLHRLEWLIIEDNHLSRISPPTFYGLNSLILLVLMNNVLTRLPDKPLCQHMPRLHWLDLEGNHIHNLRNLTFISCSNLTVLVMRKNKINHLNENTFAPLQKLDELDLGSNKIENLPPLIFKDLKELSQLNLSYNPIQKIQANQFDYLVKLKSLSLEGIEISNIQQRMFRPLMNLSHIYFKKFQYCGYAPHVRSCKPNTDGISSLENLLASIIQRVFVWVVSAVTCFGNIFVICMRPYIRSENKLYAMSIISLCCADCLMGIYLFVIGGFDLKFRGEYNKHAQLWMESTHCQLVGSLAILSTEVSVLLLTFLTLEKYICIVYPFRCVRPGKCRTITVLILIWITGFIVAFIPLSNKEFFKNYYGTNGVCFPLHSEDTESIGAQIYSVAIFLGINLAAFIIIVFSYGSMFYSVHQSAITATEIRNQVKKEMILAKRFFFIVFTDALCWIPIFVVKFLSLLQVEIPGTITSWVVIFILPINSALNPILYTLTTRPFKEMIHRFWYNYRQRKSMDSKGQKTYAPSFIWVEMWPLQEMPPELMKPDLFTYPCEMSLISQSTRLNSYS
Compound,Potency,activation
c1ccc(CCNc2nc3ccccc3n3nnnc23)cc1,"inconclusive: 14.1 µM [activator, partial curve]",
COc1ccc(Cc2nc3ccc(S(=O)(=O)N4CCOCC4)cc3[nH]2)cc1OC,,inactive: 2.31%
CCCN1C(=O)/C(=C/c2c(N3CCNC(=O)C3CC(=O)OC)nc3c(C)cccn3c2=O)SC1=S (stereo not given),"inconclusive: 17.8 µM [activator, partial curve]",
Cc1ccccc1CNC(=O)c1sc2ncnc(N(C)C3CCCCC3)c2c1C,"inconclusive: 28.2 µM [activator, partial curve]",
CCn1c(SCC(=O)Nc2ccc(C(C)=O)cc2)nc2nc3c(cc2c1=O)COC(C)(C)C3,"inconclusive: 31.6 µM [activator, partial curve]",
CCOc1ccc(NC(=O)c2oc3ccccc3c2NC(=O)c2cc3ccccc3o2)cc1,"inconclusive: 39.8 µM [activator, single point]",
O=C(c1ccc(S(=O)(=O)Nc2cccc(C(F)(F)F)c2)cc1)N1CCC1,"inconclusive: 25.1 µM [activator, partial curve]",
COc1ccc(-c2nc3ccccc3n3c(-c4ccccc4)c4c(=O)n(C)c(=O)n(C)c4c23)cc1,"inconclusive: 28.2 µM [activator, partial curve]",
Cc1cc[n+]2cc(-c3cccc([N+](=O)[O-])c3)c(-c3cccc([N+](=O)[O-])c3)cc2c1,"inconclusive: 28.2 µM [activator, partial curve]",
Cc1c(C(=O)Nc2cccnc2Cl)oc2ccccc12,"inconclusive: 39.8 µM [activator, single point]",
c1ccc(-c2cc3c(N4CCN(c5ccccc5)CC4)ncnc3s2)cc1,"inconclusive: 25.1 µM [activator, partial curve]",
Cc1cc(C)c(NC(=O)Cn2c(=O)n(Cc3ccc(C(=O)NCc4ccco4)cc3)c(=O)c3sccc32)c(C)c1,"inconclusive: 25.1 µM [activator, single point]",
COC(=O)c1cc2oc3ccccc3c2n1CC(=O)Nc1ccc(C)cc1C,"inconclusive: 39.8 µM [activator, single point]",
Cc1ccc(OCC(=O)Nc2ccc(-c3nc4ccccc4o3)cc2)c(C)c1,"inconclusive: 39.8 µM [activator, single point]",
COc1ccc(CN2CCC(CO)(CCOc3ccccc3)CC2)cc1C,,inactive: 3.15%
C=CCNC(=O)Cc1c(OC)ccc2cc(Br)ccc12,"inconclusive: 15.8 µM [activator, partial curve]",
COc1ccccc1CNC(=O)CCCn1c(=O)c2ccccc2n(Cc2ccc(C)cc2)c1=O,"inconclusive: 39.8 µM [activator, single point]",
CC1CN(C(=O)c2cc3c(=O)n4ccccc4nc3n2C)CC(C)O1 (stereo not given),"inconclusive: 31.6 µM [activator, partial curve]",
COc1ccc(CNC(=O)C(C)n2c(=O)cc(C)c3c(C)nn(-c4ccccc4)c32)cc1 (stereo not given),"inconclusive: 31.6 µM [activator, single point]",
CCN1CCN(Cc2c(O)ccc3cc(-c4ccc(OC)cc4)c(=O)oc23)CC1,"inconclusive: 28.2 µM [activator, partial curve]",
CCc1cc2c(SCc3nc4sc(C(C)=O)c(C)c4c(=O)[nH]3)ncnc2s1,"inconclusive: 28.2 µM [activator, partial curve]",
COc1cccc(C(=O)NNC(=O)C(=O)Nc2cccc(Cl)c2C)c1,,inactive: 0.856%

Compound,Potency,activation
O=C(Nc1c(C(=O)Nc2cccc(F)c2)oc2ccccc12)c1ccc2c(c1)OCO2,"inconclusive: 31.6 µM [activator, single point]",
COc1cc(C(=O)NC(c2ccccc2)c2ccccc2)cc(OC)c1C,"inconclusive: 31.6 µM [activator, single point]",
O=S(=O)(Nc1ccccn1)c1ccc(Cl)c2ccccc12,"inconclusive: 17.8 µM [activator, partial curve]",
CCCCS(=O)CC(O)CSc1nc(-c2ccc(OC)cc2)cc(-c2ccccc2)c1C#N (stereo not given),"inconclusive: 31.6 µM [activator, single point]",
COc1ccc(-c2nn3c(COc4ccccc4)nnc3s2)cc1OC,,inactive: -3.2%
Cc1cccc(-n2c(SCC(=O)N3CCCC3)nc3n[nH]c(C)c3c2=N)c1,"inconclusive: 35.5 µM [activator, single point]",
Cc1ccc(Cn2c(N)c(S(=O)(=O)c3cccs3)c3nc4ccccc4nc32)cc1,"inconclusive: 28.2 µM [activator, single point]",
CCOC(=O)c1c(C)[nH]c(C=O)c1Cc1cccc(Cl)c1,,inactive: 4.13%
Cc1c2c(n3c(nc4ccccc43)c1C#N)N(CCCN(C)C)CC2,"inconclusive: 17.8 µM [activator, partial curve]",
O=C(CCCn1c(=S)[nH]c2cc3c(cc2c1=O)OCO3)NCc1cccc(Cl)c1,"inconclusive: 20 µM [activator, partial curve]",
Cc1nc2scc(C)n2c(=O)c1S(=O)(=O)NCc1ccc(F)cc1,,inactive: 15.7%
CCc1cccc(NC(=O)CSc2ncc3c(n2)-c2ccc(Cl)cc2N(Cc2ccccc2)S3(=O)=O)c1,"inconclusive: 31.6 µM [activator, single point]",
CCC(C(=O)N1CCN(c2cccc(C)c2C)CC1)n1nc(C)c2sc3ccccc3c2c1=O (stereo not given),"inconclusive: 35.5 µM [activator, single point]",
CCN(CC)S(=O)(=O)c1ccc2c(c1)nc(SCc1nc3ccsc3c(=O)[nH]1)n2CC,"inconclusive: 1.26 µM [activator, full curve]",
COc1ccc(CCNC(=O)Cn2cc(C(=O)c3ccccc3)c(=O)c3ccc(C)nc32)cc1OC,"inconclusive: 39.8 µM [activator, single point]",
O=C1C=C(O)c2cccc3cccc1c23,active: 17.8 µM,
CCn1cc(C(=O)NCCc2ccc(C)cc2)c(=O)c2cc(S(=O)(=O)N(C)C)ccc21,"inconclusive: 39.8 µM [activator, single point]",
Cc1cccn2c(=O)c3cc(C(=O)NC4CCCC4)c(=N)n(CCCN4CCOCC4)c3nc12,"inconclusive: 28.2 µM [activator, partial curve]",
COC(=O)c1sc2nc(C)nc(SCC(=O)N3CCC(C(=O)O)CC3)c2c1C,"inconclusive: 22.4 µM [activator, partial curve]",
OCCCNC(=S)Nc1ccc(Br)cc1Cl,,inactive: -1.54%
CCOc1ccc(C(=O)c2cn(CC(=O)Nc3ccc(F)cc3)c3cc4c(cc3c2=O)OCCO4)cc1,"inconclusive: 39.8 µM [activator, single point]",
Cn1c(/C(C#N)=C(\O)COc2ccc3ccccc3c2)nc2ccccc21,"inconclusive: 31.6 µM [activator, single point]",

Compound,Potency,activation
COc1cc(CN2CCc3nc(N4CCN(c5ncccn5)CC4)ncc3C2)cc(OC)c1OC,,inactive: -1.57%
Cc1cccc(-c2nnc(SC(C)C(=O)N3CCOCC3)o2)c1 (stereo not given),,inactive: -0.429%
COc1ccc(S(=O)(=O)Nc2ccccn2)c(C)c1C,"inconclusive: 6.31 µM [activator, single point]",
CCc1ccc(OCC(=O)N(Cc2ccco2)Cc2ccccc2Cl)cc1,,inactive: -0.799%
Cc1ccccc1OCC(=O)Nc1ccccc1C(=O)OCc1cc(=O)n2ccsc2n1,"inconclusive: 35.5 µM [activator, single point]",
C=CCn1c(SCC(=O)N2CCN(c3ccccc3)CC2)nc2c([nH]c3ccccc32)c1=O,"inconclusive: 25.1 µM [activator, partial curve]",
O=C(Cn1cnc2ccccc2c1=O)NCC(=O)N1CCOCC1,"inconclusive: 22.4 µM [activator, partial curve]",
CCCNC(=O)c1c(N)n(-c2cccc(OC)c2)c2nc3ccccc3nc12,,inactive: 5.78%
COc1ccc(S(=O)(=O)N(C(=O)c2ccco2)c2cc3sc(=O)oc3c3ccccc23)cc1,,inactive: -0.0853%
Clc1ccccc1CN(Cc1ccco1)Cc1nnnn1C1CCCC1,,inactive: 2.19%
Cc1ccc2nc3c(cc(C(=O)NCC4CCCO4)c(=N)n3CC3CCCO3)c(=O)n2c1 (stereo not given),"inconclusive: 31.6 µM [activator, partial curve]",
O=C(Cn1c(=O)n(-c2ccccc2)c(=O)c2ccc(C(=O)NCc3ccc4c(c3)OCO4)cc21)Nc1ccc(Br)cc1F,"inconclusive: 28.2 µM [activator, single point]",
CCOc1ccc(CNC(=O)c2cnc(SC)nc2CC)cc1,,inactive: -1.8%
CNC(=S)N(Cc1ccc(OC)cc1)Cc1cc2cc(C)ccc2[nH]c1=O,"inconclusive: 12.6 µM [activator, partial curve]",
Cc1ccc(C2C(C#N)=C(N)SC(N)=C2C#N)o1,"inconclusive: 28.2 µM [activator, partial curve]",
CNc1nc2c(N)ncnc2n1[C@H]1O[C@@H](CO)[C@H](O)[C@@H]1O,"inconclusive: 25.1 µM [activator, single point]",
Cc1ccc(-n2c(=S)[nH]c3sc4c(c3c2=O)CCC4)cc1,active: 12.6 µM,
CSc1ccc(C2c3c(oc4ccc(F)cc4c3=O)C(=O)N2c2ccc(C)cn2)cc1 (stereo not given),"inconclusive: 14.1 µM [activator, partial curve]",
O=C(CCCn1c(=O)c2cccn2c2cccnc21)NCc1cccc(Br)c1,"inconclusive: 39.8 µM [activator, single point]",
Cc1cc(=S)c2cccc(C)c2[nH]1,active: 22.4 µM,
COc1ccccc1CNC(=O)c1nn(-c2ccc(C)cc2)c(=O)c2c1c1ccccc1n2C,"inconclusive: 39.8 µM [activator, single point]",
